Results: patent publication US9598497B2, “RSPO3 binding agents and uses thereof” (OncoMed Pharmaceuticals, Inc., priority 2012, dated 2017)

Key:
[1] = tested on: RSPO3-induced β-catenin signaling; assay: TOPflash 6xTCF-luciferase reporter assay in HEK-293 cells with WNT3a and RSPO3; assay type: cell-based; settings: WNT3a + human RSPO3, antibody 20 to 0.006 μg/ml, compared with parental 131R003, FIG. 4
Protocol: HEK-293 cells were transfected with a 6×TCF-luciferase reporter vector (TOPflash, Millipore, Billerica, Mass.). After 24-48 hrs, the transfected HEK-293 cells were incubated with a combination of WNT3a (5 ng/ml) and human RSPO3 (10 ng/ml, R&D BioSystems, Minneapolis, Minn.) in the presence of anti-RSPO3 antibodies 131R002 and 131R003. Antibodies 131R002 and 131R003 were added to the cells in 4-fold serial dilutions from 20 μg/ml to 0.02 μg/ml. As controls, cells were incubated with a combination of WNT3a and RSPO3, WNT3a only, RSPO3 only, or with no addition. The cells were incubated for 16 hours and luciferase activity was measured using Steady-Glo® Luciferase Assay System according to the manufacturer's instructions (Promega, Madison, Wis.).
(§1) HEK-293 cells were transfected with a 6×TCF-luciferase reporter vector (TOPflash, Millipore, Billerica, Mass.). […] The cells were incubated for 16 hours and luciferase activity was measured using Steady-Glo® Luciferase Assay System according to the manufacturer's instructions (Promega, Madison, Wis.).
as §1, with “Wis.). […]” for “Wis.).”

[2] = biological target: murine RSPO1 (Mus musculus, UniProt Q9Z132); assay: Binding of antibody to murine RSPO1 (additional experiments)
murine RSPO1, sequence (Q9Z132 21-265): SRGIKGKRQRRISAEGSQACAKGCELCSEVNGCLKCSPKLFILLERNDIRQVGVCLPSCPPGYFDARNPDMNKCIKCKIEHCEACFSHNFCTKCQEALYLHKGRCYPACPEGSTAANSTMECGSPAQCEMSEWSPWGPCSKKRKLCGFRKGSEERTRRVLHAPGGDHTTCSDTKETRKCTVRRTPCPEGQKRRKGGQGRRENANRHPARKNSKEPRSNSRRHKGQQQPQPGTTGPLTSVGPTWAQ
Protocol: (§2) The method used was different than described in Example 3. A goat anti-human IgG antibody was coupled to a carboxymethyl-dextran (CM5) SPR chip using standard amine-based chemistry (NHS/EDC) and blocked with ethanolamine. Antibodies (purified antibody or culture supernatant) were diluted to a concentration of 10 μg/ml in HBS-P-BSA (0.01M HEPES pH7.4, 0.15M NaCl, 0.005% v/v Polysorbate 20, 100 ug/ml BSA) and captured onto the chip via the anti-human IgG antibody. Human RSPO3 (R&D Systems) was serially diluted 2-fold from 300 nM to 37.5 nM in HBS-P-BSA and injected sequentially over the captured anti-RSPO3 antibodies. RSPO3 association and dissociation was measured at each concentration. After each antigen injection 5 μl of 100 mM H3P04 was injected to remove the antigen-antibody complex and a subsequent injection performed. Kinetic data were collected over time and were fit using the simultaneous global fit equation to yield affinity constants (KD values) for each antibody (Table 4).

[3] = biological target: murine RSPO2 (Mus musculus, UniProt Q8BFU0); assay: Binding of antibody to murine RSPO2 (additional experiments)
murine RSPO2, sequence (Q8BFU0 24-243): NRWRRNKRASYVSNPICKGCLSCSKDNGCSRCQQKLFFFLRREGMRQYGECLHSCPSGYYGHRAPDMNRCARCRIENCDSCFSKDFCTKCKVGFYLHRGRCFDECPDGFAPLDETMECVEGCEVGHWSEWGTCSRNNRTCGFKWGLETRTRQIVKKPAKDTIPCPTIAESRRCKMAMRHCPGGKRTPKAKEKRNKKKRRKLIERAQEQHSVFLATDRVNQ
Protocol: as §2

[4] = biological target: human RSPO1 (Homo sapiens, UniProt Q2MKA7); assay: Binding of antibody to human RSPO1 (additional experiments)
human RSPO1, sequence (Q2MKA7 21-263): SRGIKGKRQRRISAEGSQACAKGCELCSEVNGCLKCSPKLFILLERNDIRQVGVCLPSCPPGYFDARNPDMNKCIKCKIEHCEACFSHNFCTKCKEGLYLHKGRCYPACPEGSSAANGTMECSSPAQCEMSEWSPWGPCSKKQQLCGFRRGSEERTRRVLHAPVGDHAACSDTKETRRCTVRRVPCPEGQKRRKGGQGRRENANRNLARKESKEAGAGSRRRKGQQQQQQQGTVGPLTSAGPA
Protocol: as §2

[5] = tested on: OMP-LU25 lung tumor; assay: OMP-LU25 lung tumor xenograft growth; assay type: in vivo, NOD/SCID mice; settings: antibody 20 mg/kg weekly, paclitaxel 15 mg/kg weekly, FIG. 14
Protocol: In a study with a second lung tumor, dissociated OMP-LU25 lung tumor cells (5×10^4 cells) were injected into 6-8 week old NOD/SCID mice. Tumors were allowed to grow for 48 days until they reached an average volume of 110 mm^3. The mice were randomized (n=9 per group) and treated with anti-RSPO3 antibody 131R002 or a control antibody. […] Data are expressed as mean±S.E.M.
OMP-LU25 tumor cells (5×10^4) were injected into NOD-SCID mice. Tumors were allowed to grow for 33 days until they reached an average volume of 120 mm^3. Tumor-bearing mice were randomized into 4 groups (n=9 per group). Tumor-bearing mice were treated with either control antibody, anti-RSPO3 antibody 131R008, paclitaxel, or the combination of anti-RSPO3 antibody 131R008 and paclitaxel. Antibodies were dosed weekly at 20 mg/kg. Paclitaxel was dosed weekly at 15 mg/kg.

[6] = biological target: human RSPO4 (Homo sapiens, UniProt Q2I0M5); assay: Binding of antibody to human RSPO4 (additional experiments)
human RSPO4, sequence (Q2I0M5 20-234): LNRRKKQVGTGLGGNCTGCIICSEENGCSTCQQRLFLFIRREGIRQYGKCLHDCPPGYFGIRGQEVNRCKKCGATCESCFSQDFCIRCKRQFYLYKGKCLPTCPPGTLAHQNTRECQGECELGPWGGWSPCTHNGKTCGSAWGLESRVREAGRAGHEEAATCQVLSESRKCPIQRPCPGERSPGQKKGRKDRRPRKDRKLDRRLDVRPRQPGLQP
Protocol: as §2

[7] = biological target: murine RSPO4 (Mus musculus, UniProt Q8BJ73); assay: Binding of antibody to murine RSPO4 (additional experiments)
murine RSPO4, sequence (Q8BJ73 20-228): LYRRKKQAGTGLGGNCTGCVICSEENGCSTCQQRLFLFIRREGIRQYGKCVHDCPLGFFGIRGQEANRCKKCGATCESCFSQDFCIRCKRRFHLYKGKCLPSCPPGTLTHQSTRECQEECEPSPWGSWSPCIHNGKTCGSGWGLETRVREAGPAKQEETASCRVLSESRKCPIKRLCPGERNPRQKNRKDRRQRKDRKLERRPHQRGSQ
Protocol: as §2

binding to murine RSPO1 [2]	binding to murine RSPO2 [3]	binding to human RSPO1 [4]	binding to human RSPO4 [6]	binding to murine RSPO4 [7]	Molecule	RSPO3-induced β-catenin signaling [1]	OMP-LU25 tumor growth [5]
					131R003 CDR1 variant: affinity-matured 131R003 variant with altered heavy chain CDR1 (SEQ ID NO:34) (antibody) heavy: QVQLKQSGPELVKPGASVKISCKASGYTFTSYTFHWVKQNHGKSLDWIGYIYPSNGDSGYNQKFKNRATLTVDTSYSTAYLEVRRLTFEDSAVYYCATYFANYFDYWGQGTTLTVSSASTKGPSVFPLAPCSRSTSESTAALGCLVKDYFPEPVTVSWNSGALTSGVHTFPAVLQSSGLYSLSSVVTVPSSNFGTQTYTCNVDHKPSNTKVDKTVERKCCVECPPCPAPPVAGPSVFLFPPKPKDTLMISRTPEVTCVVVDVSHEDPEVQFNWYVDGVEVHNAKTKPREEQFNSTFRVVSVLTVVHQDWLNGKEYKCKVSNKGLPAPIEKTISKTKGQPREPQVYTLPPSREEMTKNQVSLTCLVKGFYPSDIAVEWESNGQPENNYKTTPPMLDSDGSFFLYSKLTVDKSRWQQGNVFSCSVMHEALHNHYTQKSLSLSPGK light: DIVLTQSPASLAVSLGQRATISCKASQSVDYDGDSYMNWYQQKPGQPPKLLIYAASNLESGIPARFSGSGSGTDFTLNIHPVEEEDAATYYCQQSNEDPLTFGAGTKLELKRTVAAPSVFIFPPSDEQLKSGTASVVCLLNNFYPREAKVQWKVDNALQSGNSQESVTEQDSKDSTYSLSSTLTLSKADYEKHKVYACEVTHQGLSSPVTKSFNRGEC	reduced RSPO3-induced β-catenin signaling in a dose-dependent manner and at lower concentrations than parental 131R003	
no detectable binding	no detectable binding	no detectable binding	weak binding	weak binding	h131R008: humanized 131R003 variant, IgG1; heavy chain SEQ ID NO:69, light chain SEQ ID NO:74 (antibody, Humanized 131R008/131R010 Heavy chain (IgG1); Humanized 131R005/131R007/131R008 Light chain) heavy: QVQLVQSGAEVKKPGASVKVSCKASGYTFTDYSIHWVRQAPGQGLEWIGYIYPSNGDSGYNQKFKNRVTMTRDTSTSTAYMELSRLRSEDTAVYYCATYFANNFDYWGQGTTLTVSSASTKGPSVFPLAPSSKSTSGGTAALGCLVKDYFPEPVTVSWNSGALTSGVHTFPAVLQSSGLYSLSSVVTVPSSSLGTQTYICNVNHKPSNTKVDKRV[… human IgG1 Fc …] light: DIVLTQSPASLAVSLGQRATITCKASQSVDYDGDSYMNWYQQKPGQPPKLLIYAASNLESGIPARFSGSGSGTDFTLTINPVEAEDVATYYCQQSNEDPLTFGAGTKLELKRTVAAPSVFIFPPSDEQLKSGTASVVCLLNNFYPREAKVQWKVDNALQSGNSQESVTEQDSKDSTYSLSSTLTLSKADYEKHKVYACEVTHQGLSSPVTKSFNRGEC		inhibited OMP-LU25 tumor growth as a single agent
					131R003 CDR3 variant: affinity-matured 131R003 variant with altered heavy chain CDR3 (SEQ ID NO:35); heavy chain variable region SEQ ID NO:36 (antibody) heavy: QVQLKQSGPELVKPGASVKISCKASGYTFTDYSIHWVKQNHGKSLDWIGYIYPSNGDSGYNQKFKNRATLTVDTSYSTAYLEVRRLTFEDSAVYYCATYFANNFDYWGQGTTLTVSSASTKGPSVFPLAPCSRSTSESTAALGCLVKDYFPEPVTVSWNSGALTSGVHTFPAVLQSSGLYSLSSVVTVPSSNFGTQTYTCNVDHKPSNTKVDKTVERKCCVECPPCPAPPVAGPSVFLFPPKPKDTLMISRTPEVTCVVVDVSHEDPEVQFNWYVDGVEVHNAKTKPREEQFNSTFRVVSVLTVVHQDWLNGKEYKCKVSNKGLPAPIEKTISKTKGQPREPQVYTLPPSREEMTKNQVSLTCLVKGFYPSDIAVEWESNGQPENNYKTTPPMLDSDGSFFLYSKLTVDKSRWQQGNVFSCSVMHEALHNHYTQKSLSLSPGK light: DIVLTQSPASLAVSLGQRATISCKASQSVDYDGDSYMNWYQQKPGQPPKLLIYAASNLESGIPARFSGSGSGTDFTLNIHPVEEEDAATYYCQQSNEDPLTFGAGTKLELKRTVAAPSVFIFPPSDEQLKSGTASVVCLLNNFYPREAKVQWKVDNALQSGNSQESVTEQDSKDSTYSLSSTLTLSKADYEKHKVYACEVTHQGLSSPVTKSFNRGEC	reduced RSPO3-induced β-catenin signaling in a dose-dependent manner and at lower concentrations than parental 131R003	
